According to publication PMC6054203:
Results are given in words; binding and its absence hold for the method and conditions named. Where a sequence is shown, tags or fusion partners need not be part of it.

Assays:
Test in all cases: two-hybrid; yeast strain AH109 co-transformed with AD (pGAD.GH) and BD (pGBT9.BS) fusions; growth on SC-LWH and on SC-LWH with 0.5 and 3.0 mM 3-AT
[1] = biological target: T1, CIPK1, two-hybrid fusion (Arabidopsis) (UniProt Q8RWC9)
T1 sequence: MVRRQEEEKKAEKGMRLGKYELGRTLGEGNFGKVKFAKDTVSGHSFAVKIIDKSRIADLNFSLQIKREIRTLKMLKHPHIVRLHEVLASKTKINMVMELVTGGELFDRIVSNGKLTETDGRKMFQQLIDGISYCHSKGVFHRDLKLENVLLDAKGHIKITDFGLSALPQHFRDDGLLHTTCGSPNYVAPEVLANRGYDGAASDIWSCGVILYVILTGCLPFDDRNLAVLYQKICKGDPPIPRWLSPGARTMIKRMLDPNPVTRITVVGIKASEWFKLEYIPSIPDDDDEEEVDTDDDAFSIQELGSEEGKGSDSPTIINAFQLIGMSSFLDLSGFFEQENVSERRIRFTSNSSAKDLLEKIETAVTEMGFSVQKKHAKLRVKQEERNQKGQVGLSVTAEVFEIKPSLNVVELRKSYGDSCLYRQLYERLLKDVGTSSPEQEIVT

[2] = biological target: T2, CIPK16, two-hybrid fusion (Arabidopsis) (UniProt Q9SEZ7)
T2 sequence: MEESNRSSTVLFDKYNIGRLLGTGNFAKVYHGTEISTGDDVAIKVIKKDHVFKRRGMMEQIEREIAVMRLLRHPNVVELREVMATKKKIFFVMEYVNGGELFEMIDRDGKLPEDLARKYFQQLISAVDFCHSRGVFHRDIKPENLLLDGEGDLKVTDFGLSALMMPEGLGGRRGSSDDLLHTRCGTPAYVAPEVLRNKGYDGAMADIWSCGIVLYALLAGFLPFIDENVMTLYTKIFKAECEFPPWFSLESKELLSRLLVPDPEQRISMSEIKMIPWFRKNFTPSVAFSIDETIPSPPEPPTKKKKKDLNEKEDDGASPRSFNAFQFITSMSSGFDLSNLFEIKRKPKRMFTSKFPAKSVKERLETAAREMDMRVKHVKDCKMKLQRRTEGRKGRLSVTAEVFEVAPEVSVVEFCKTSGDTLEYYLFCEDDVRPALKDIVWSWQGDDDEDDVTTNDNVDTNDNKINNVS

[3] = biological target: T3, CIPK21, two-hybrid fusion (Arabidopsis) (UniProt Q94CG0)
T3 sequence: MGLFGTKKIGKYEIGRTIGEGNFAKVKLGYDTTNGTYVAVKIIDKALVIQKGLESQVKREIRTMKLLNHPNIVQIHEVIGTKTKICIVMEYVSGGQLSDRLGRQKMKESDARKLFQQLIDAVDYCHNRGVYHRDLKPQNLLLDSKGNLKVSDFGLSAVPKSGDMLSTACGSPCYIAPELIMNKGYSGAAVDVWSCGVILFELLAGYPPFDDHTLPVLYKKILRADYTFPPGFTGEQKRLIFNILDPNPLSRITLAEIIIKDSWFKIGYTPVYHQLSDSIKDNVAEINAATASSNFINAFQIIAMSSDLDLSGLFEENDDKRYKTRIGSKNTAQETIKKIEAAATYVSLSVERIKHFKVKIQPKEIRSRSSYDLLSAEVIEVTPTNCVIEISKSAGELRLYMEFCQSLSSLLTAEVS

[4] = biological target: T4, CIPK24, two-hybrid fusion (Arabidopsis) (UniProt Q9LDI3)
T4 sequence: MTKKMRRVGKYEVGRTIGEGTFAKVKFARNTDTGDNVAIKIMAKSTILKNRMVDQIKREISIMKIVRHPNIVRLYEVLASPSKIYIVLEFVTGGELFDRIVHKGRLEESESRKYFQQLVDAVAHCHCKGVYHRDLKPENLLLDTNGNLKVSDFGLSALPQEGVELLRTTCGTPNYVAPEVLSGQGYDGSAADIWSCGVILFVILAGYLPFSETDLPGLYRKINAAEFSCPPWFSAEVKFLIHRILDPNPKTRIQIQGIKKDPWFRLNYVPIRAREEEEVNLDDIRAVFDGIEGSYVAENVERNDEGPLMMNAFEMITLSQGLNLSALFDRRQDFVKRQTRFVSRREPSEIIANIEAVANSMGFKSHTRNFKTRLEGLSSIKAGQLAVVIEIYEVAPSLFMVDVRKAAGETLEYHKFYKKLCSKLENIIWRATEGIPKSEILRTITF

[5] = biological target: T5, CIPK5, two-hybrid fusion (Arabidopsis) (UniProt Q9LEU7)
T5 sequence: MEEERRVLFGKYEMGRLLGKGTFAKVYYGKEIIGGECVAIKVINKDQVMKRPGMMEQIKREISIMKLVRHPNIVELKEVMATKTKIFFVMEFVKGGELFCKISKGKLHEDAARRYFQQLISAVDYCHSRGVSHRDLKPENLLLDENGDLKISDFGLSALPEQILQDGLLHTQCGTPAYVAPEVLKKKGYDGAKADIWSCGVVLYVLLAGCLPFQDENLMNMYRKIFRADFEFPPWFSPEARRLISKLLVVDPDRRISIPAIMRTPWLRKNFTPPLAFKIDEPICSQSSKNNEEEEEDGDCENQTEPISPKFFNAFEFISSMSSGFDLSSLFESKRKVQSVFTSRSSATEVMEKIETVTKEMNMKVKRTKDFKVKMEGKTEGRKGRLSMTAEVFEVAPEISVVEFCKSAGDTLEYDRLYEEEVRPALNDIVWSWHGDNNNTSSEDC

Measured: binding

B1: AP2C1 (protein phosphatase 2C), two-hybrid fusion (enzyme, UniProt O80871 1-396)
chain: MSCSVAVCNSPVFSPSSSLFCNKSSILSSPQESLSLTLSHRKPQTSSPSSPSTTVSSPKSPFRLRFQKPPSGFAPGPLSFGSESVSASSPPGGVLKRKRPTRLDIPIGVAGFVAPISSSAAVAATPREECREVEREGDGYSVYCKRGRREAMEDRFSAITNLHGDRKQAIFGVYDGHGGVKAAEFAAKNLDKNIVEEVVGKRDESEIAEAVKHGYLATDASFLKEEDVKGGSCCVTALVNEGNLVVSNAGDCRAVMSVGGVAKALSSDHRPSRDDERKRIETTGGYVDTFHGVWRIQGSLAVSRGIGDAQLKKWVIAEPETKISRIEHDHEFLILASDGLWDKVSNQEAVDIARPLCLGTEKPLLLAACKKLVDLSASRGSSDDISVMLIPLRQFI
no binding: [1] | [2] | [3] | [4] | [5]
